Laboratory results reported in PubChem BioAssay AID1963576 (National Center for Advancing Translational Sciences (NCATS), 2024).
The whole screen tested about 46,000 compounds, of which about 60 (0.1%) were called active. Roughly 3% stayed inconclusive and do not appear here. Calls come from the whole dose curve; as a rule, active = well fitted inhibition curve with a large enough effect; inconclusive = small, poorly fitted or top-dose-only effect; inactive = no such curve, though single readings can be large or run the other way. The list shows a part of the results.

Test: Primary qHTS assay for Inhibitors of ovarian cancer metastasis using an organotypic tumor microenvironment (TME) model.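 For activity change, negative = inhibition: plate controls were DMSO wells for no effect and tomatine positive control wells for full effect.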 Note: nearly all actives have a fitted effect of over 65% in size.
Conditions: SKOV3ip1-GFP adhesion/invasion on 3D omental model, fluorescence; series mostly up to 45.8 µM; activity change, negative = inhibition: at the top concentration
Summary of the method: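 A 3D layer of primary human omental fibroblasts, mesothelial cells, fibronectin and collagen I, grown 48 hr, received SKOV3ip1-GFP cells in serum-free medium plus compounds at 0.36-46 umol/L. After 2 hr RT and 16 hr 37 C, fixed adherent GFP cells were counted; normalized to DMSO and tomatine.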

outcome, inactive:
COc1ccc(OCC2c3cc(OC)c(OC)cc3CCN2C(=O)COc2ccc(Cl)cc2Cl)cc1 (stereo not drawn)
CCOCCc1nn2c(=O)cc(COC(=O)CNC(=O)c3ccc(F)cc3)nc2s1
CCc1ccc(Nc2sc(C(=O)c3ccccc3)c(N)c2S(C)(=O)=O)cc1
C=Cc1ccc(Cn2c(C(=O)O)c(CNCc3ccccc3)c3ccc(OC)cc32)cc1
COc1ccc(-c2cn3c(n2)sc2cc(C(=O)Nc4ccc(F)cc4Cl)ccc23)cc1
O=C(NC1CCCCCC1)c1ccc(CS(=O)c2ccc(Br)cc2)o1 (stereo not drawn)
Cc1ccc(NC(=O)CSCc2cnn(-c3ccccc3)c2-n2cccc2)c(Cl)c1
CC(C)CCNC(=O)c1ccc(Cn2c(SCC(N)=O)nc3ccccc3c2=O)cc1
CCS(=O)(=O)c1cccc(C(=O)N2CCN(c3nc4c(C)ccc(Cl)c4s3)CC2)c1
COC(=O)c1ccc(CSc2nc3c([nH]c4ccccc43)c(=O)n2-c2cc(C)cc(C)c2)o1
O=C1COc2cc(S(=O)(=O)CCC(=O)N3CCN(c4ccccc4)CC3)c(Cl)cc2N1
Cc1ccc(S(=O)(=O)NCCc2nnc3ccc(SCC(=O)Nc4ccc(OC(F)(F)F)cc4)nn23)cc1
COc1ccccc1OCC(=O)Nc1c(C(=O)c2ccc(C)cc2)oc2ccccc12
CCOc1ccc(NC(=O)Cn2cc(C(=O)c3ccccc3)c(=O)c3cc4c(cc32)OCO4)cc1
Cc1ccc(-c2nnc(Nc3cccc(O)c3)c3ccccc23)cc1S(=O)(=O)N1CCCCC1
COc1cc(Cl)c(NC(=O)CN(C)S(=O)(=O)c2ccc3c(c2)CCCC(=O)N3)c(OC)c1
Cn1c(SCC(=O)c2ccc(F)cc2)nnc1-c1ccccc1Br
O=C(Nc1ccc(Cl)cc1)c1cc(S(=O)(=O)N2CCc3ccccc32)ccc1F

Activity change, negative = inhibition, inactive:
OCCC#Cc1nc(-c2ccc(F)cc2)c(-c2ccncc2)n1CCCc1ccccc1 -9.78%
CCOC(=O)C1CCN(S(=O)(=O)c2ccc(N3CCCCS3(=O)=O)cc2)CC1 1.03%
CCCn1c(=O)c2sccc2n2c(CCCC(=O)Nc3ccc(Oc4ccccc4)cc3)nnc12 4.79%
COCCCOc1cc(C[C@@H](C[C@H](N)[C@@H](O)C[C@H](C(=O)NCC(C)(C)C(N)=O)C(C)C)C(C)C)ccc1OC 6.62%
Cc1ccc(CNC(=O)c2cc(-c3ccc(C)cc3)nc3n[nH]c(-c4ccc(F)cc4)c23)cc1 1.93%
CC(C)C1N=C2c3ccccc3N=C(SCC(=O)NCc3ccccc3Cl)N2C1=O (stereo not drawn) -4.57%
CCn1c(SCc2ccc(F)cc2Cl)nc(=O)c2c(C(=O)OC)cc(C3CC3)nc21 -12.6%
CC(=O)Nc1ccc(S(=O)(=O)NCc2cccn2Cc2cccc(C)c2)cc1 -3.27%
CCOc1ccc(CN2C(=O)c3ccccc3Sc3ccc(C(=O)OC)cc32)cc1 -9.16%
COc1ccc(N2CC(NC(=O)c3ccco3)CC2=O)cc1OC (stereo not drawn) 8.42%
O=C(c1ccc2c(c1)CCN2S(=O)(=O)c1ccc(Cl)cc1)N1CCN(c2ccccc2)CC1 2.72%
COc1ccc(OC)c(CNC(=O)c2c(C)oc3ncn(C)c(=O)c23)c1 -1.13%
COc1ccc(CNc2oc(/C=C/c3cccc(OC)c3)nc2C#N)cc1 -18.8%
O=C(NCc1ccc(F)cc1)C1CCN(c2ncnc3c2nc2n3CCCCC2)CC1 -13.9%
COc1ccc(CNC(=O)c2ccc3c(c2)N(Cc2ccccc2C)C(=O)c2ccccc2S3=O)cc1 (stereo not drawn) -0.38%
CCOCCCNC(=O)c1cn(CC)c2ccc(S(=O)(=O)N3CCc4ccccc4C3)cc2c1=O 0.922%
CCOC(=O)c1[nH]c(C)c(CCC(=O)N2CCN(c3cccc(C)c3C)CC2)c1C -20.8%
Cc1ccc2nc(-c3ccncc3)c(Nc3ccc(C(C)C)cc3)n2c1 -1.66%
CC(=O)c1ccc(NC(c2ccc(F)cc2)c2nnc(-c3ccccc3)o2)cc1 (stereo not drawn) -8.36%
CC(C)(C)OC(=O)N1CCC(c2c(C(=O)N3CCN(c4ccccn4)CC3)cnn2-c2ccccc2Cl)CC1 -5.2%
CN(Cc1ccccc1)C(=O)c1cccc(NC(=O)c2nsc3ccccc23)c1 -16.9%
COc1cc(C(CC(=O)Nc2cc(C)ccc2C)N2Cc3ccccc3C2=O)cc(OC)c1OC (stereo not drawn) -4.9%
CCOc1ccc(CC(=O)NCCc2csc(-c3ccc(Cl)cc3)n2)cc1 1.32%
Cc1ccc(CSc2nc(-c3ccc(C(C)(C)C)cc3)nc3cc(=O)[nH]n23)cc1 -28.4%
Cc1ccc(NC(=O)C(=O)NCC(c2cccnc2)N2CCc3ccccc3C2)cc1 (stereo not drawn) 23.2%
Cc1ccc(F)cc1NC(=O)CCSc1nc(-c2ccco2)cc(C(F)(F)F)n1 -25.2%
CC1CCCN(S(=O)(=O)c2cc(C(=O)NCc3ccccc3Cl)n(C)c2)C1 (stereo not drawn) 2.91%
CC(C)CCNC(=O)c1nn(C)c2c1CSc1ccccc1-2 -3.68%
COC(=O)c1c(-c2cccs2)csc1NC(=O)c1cc(OC)c(OC)c(OC)c1 3.45%
CCOc1cc2[nH]c(=O)n(CCCC(=O)NCc3ccc(OC)cc3)c(=O)c2cc1OCC -5.52%
COc1ccc(-n2ccn(CC(=O)Nc3ccc(C)c(C)c3)c(=O)c2=O)cc1OC 11.7%
O=S(=O)(Nc1ccc(-c2ccc(N3CCCC3)nn2)cc1)c1ccc(OC(F)(F)F)cc1 3.63%
COc1cccc(C2c3c(-c4ccccc4O)n[nH]c3C(=O)N2Cc2cccnc2)c1 (stereo not drawn) 5.27%
CCN(C(=O)c1cc2cc(Br)cc(OC)c2oc1=O)c1ccccc1 -11.8%
Cc1ccc(CCNC(=O)c2cccc(Nc3nc4ccccc4nc3-n3nc(C)cc3C)c2)cc1 -0.218%
COc1ccc(S(=O)(=O)NCCc2sc(-c3cccc(C)c3)nc2C)cc1 19.2%
COc1ccc(CCNc2nc3ccccc3c3nc(-c4cccc(C)c4)nn23)cc1OC -9.47%
COc1cc(Br)ccc1C1C(C(=O)Nc2ccc(C)cc2C)=C(C)Nc2nnnn21 (stereo not drawn) 0.177%
CCc1ccccc1NC(=O)Cn1c(=O)n(-c2ccc(C)c(C)c2)c(=O)c2oc3ccccc3c21 3.41%
CCOc1cc(C(=O)OCc2cc(=O)n3nc(C4CC4)sc3n2)cc(OCC)c1OCC 0.257%
COc1cc(OC)c(NC(=O)NCc2cccn2Cc2ccccc2)cc1Cl 7.3%
Cc1nn(CC(=O)N2CCN(c3cccc(Cl)c3)CC2)c(=O)c2c1sc1ccccc12 12.5%
CCOC(=O)c1ccc(NC(=O)CCc2c(C)nc3c(c(C)nn3C(C)(C)C)c2C)cc1 -2.39%
CCc1ccc(-n2nc(C)c3c(C(=O)N4CCN(c5cccc(Cl)c5)CC4)cc(C)nc32)cc1 -12.4%
CN(C(=O)Cn1ncc2c1-c1ccccc1OC2)c1ccc(Br)cc1 -4.24%
CCCCCn1c(CNC(=O)c2ccc(F)cc2)nc2ccccc21 4.92%
CCCc1ccc(-c2ccc(C(=O)Oc3ccc(Br)cc3)cc2)nc1 -8.15%
CCOc1ccc(NC(=O)Cn2c(=O)c(CNc3ccccc3)cc3cc4c(cc32)OCCO4)cc1 8.88%
Cc1cc(C)cc(-n2ccnc(NCc3ccc(F)cc3)c2=O)c1 -10.5%
COc1ccc(Cl)cc1C(=O)Nc1c2c(nn1-c1ccc(Cl)cc1)CS(=O)(=O)C2 2.99%
COc1ccccc1CNS(=O)(=O)c1ccc(N2CCCCS2(=O)=O)cc1 0.492%
COc1ccc(OC)c(CCNC(=O)C(C)n2c(C)c3cnn(-c4ccccc4)c(=O)c3c2C)c1 (stereo not drawn) 25.4%
CCOC(=O)c1c(C)[nH]c(C)c1S(=O)(=O)N1CCC(C(=O)NCc2ccc(N(C)C)cc2)CC1 -29.5%
CN(C)C1(CNC(=O)COc2ccc(C(C)(C)C)cc2)CCCCC1 -4.35%
O=C(Nc1ccc2c(c1)OCO2)c1cc(-c2ccc(Cl)cc2)on1 1.88%
CCCCCn1c(-c2cccc(C)c2)nc2ccccc21 -2.06%
Cc1ccc(Cn2c(=O)n(-c3ccc(C)c(C)c3)c(=O)c3c(C)c(C)sc32)cc1 1.47%
COc1ccc(Cl)cc1NC(=O)CSc1nc(=O)[nH]c2c1CCCC2 -0.313%
COc1ccccc1NC(=O)c1oc2ccccc2c1NC(=O)COc1ccccc1OC -4.2%
CCOc1ccc(CNC(=O)C2=Cc3cc(Br)ccc3OC2)cc1OC -5.91%
CCOc1ccc(OCC)c(NC(=O)c2csc3c2CCCC3)c1 -9.47%
COc1cc(NC(=O)N2CCC(CN3CCc4ccccc4C3)CC2)cc(OC)c1 0.973%
COc1ccc(NC(=O)c2cc(C)nc3c2c(C)nn3-c2cccc(Cl)c2C)c(OC)c1 -9.51%
CC(=O)N1c2c(cc(Br)cc2S(=O)(=O)NCc2ccccc2Cl)CC1C (stereo not drawn) 4.62%
Cc1ccc2oc(-c3ccc(NC(=O)c4cccc(F)c4)c(C)c3)nc2c1 -3.82%
COc1ccccc1C(=O)Nc1c(C(=O)N(C)c2ccccc2)sc2nc(C)cc(C)c12 3.12%
COc1ccc(C)cc1NC(=O)CSc1ccc(-c2ccccn2)nn1 -34.4%
CCOC(=O)c1ccc(OC(=O)CCCCCN=C(N)N)cc1 -0.314%
Cc1cccc(NC(=O)c2oc3ccccc3c2NC(=O)c2cc(=O)c3cc(Cl)ccc3o2)c1 -0.551%
Cc1ccc(S(=O)(=O)Nc2nc3n(n2)C(c2ccccc2Cl)C=C(c2ccccc2)N3)cc1 (stereo not drawn) 1.27%
COc1ccc(-c2nc(Cn3c(SCc4ccccc4F)nc4ccncc43)c(C)o2)cc1OC 3.28%
COc1cccc(CNC(=O)CN2C(=O)COc3ccc(S(=O)(=O)Nc4ccccc4)cc32)c1 -0.153%
O=C(CCS(=O)(=O)c1cc(Br)cc2c1N(C(=O)C1CC1)CC2)Nc1ccc(C(F)(F)F)cc1 -2.94%
COc1ccc(CNC(=O)C2CCN(C(=O)N3CC(C)Oc4ccc(C)cc43)CC2)cc1 (stereo not drawn) 1.7%
CN(Cc1ccccc1)C(=O)C1CCN(S(=O)(=O)c2ccc3nc4c(c(C(=O)O)c3c2)CCCC4)CC1 11.2%
